Data from US20240116863A1, “DIPHENYL THIOUREA AND DIPHENYL UREA DERIVATIVES AS INHIBITORS OF ENDOCYTOSIS” (priority 2022, published 2024).

System: IAV Udorn (H3N2) and NYMC (H3N2) strains
Format: cell-based, influenza A virus

Row | SMILES | effect on infection with IAV Udorn (H3N2) and NYMC (H3N2)
1 | O=C(Nc1cc(F)cc(F)c1)Nc1cc(F)cc(F)c1 [DPUD-16, 1,3-bis(3,5-difluorophenyl)urea] | Reduced infection
2 | O=C(Nc1ccc(OC(F)(F)F)cc1)Nc1ccc(OC(F)(F)F)cc1 [DPUD-20, 1,3-bis(4-(trifluoromethoxy)phenyl)urea] | Reduced infection
